PubChem BioAssay AID1508623 (National Center for Advancing Translational Sciences (NCATS), 2021)
The whole screen tested about 48,000 compounds, of which about 450 (0.94%) were called active. Not shown: some 19% with an inconclusive outcome. Calls follow the shape of the dose curve; as a rule, active = well fitted inhibition curve with a large enough effect; inconclusive = small, poorly fitted or top-dose-only effect; inactive = no such curve, though single readings can be large or run the other way. Some of the results follow.

experiment: Primary qHTS for Identification of Small Molecule Inhibitors of Huntingtin Promoter Activity; conditions: HEK293 HTT promoter firefly luciferase reporter (activity 0% = vehicle and -100% = no light), 24 h; series mostly up to 57.5 µM; activity change, negative = inhibition: at the top concentration; also: nearly all actives have a fitted effect of over 50% in size
How it was run: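 Firefly luciferase signal from promoter-reporter HEK293 cells was scaled between vehicle (0%) and zero RLU (-100%). Compounds were tested at final concentrations of up to 57.5 uM over 24 h at 37 degrees C. PTC124 at 50 uM final served as control inhibitor.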

Activity change, negative = inhibition, inactive:
COc1cc2nc(NCCc3ccc(Cl)cc3)n3nc(-c4ccccc4)nc3c2cc1OC -10.1%, CCN(C(=O)c1nn(C)c2c1CSc1ccccc1-2)c1cccc(C)c1 -15.4%, COc1ccc(NC(=O)Cn2nc(C)c3c(C)n(-c4ccccc4)nc3c2=O)cc1OC 2.53%, CCCCCCCCCCCCCCCC(=O)OC(C)C 13.3%, CCOc1cc(-c2cc(C(=O)O)c3c(-c4ccccc4)[nH]nc3n2)ccc1O -0.714%, COc1ccc(S(=O)(=O)NCC(c2ccco2)S(=O)(=O)c2cccs2)cc1OC (stereo not drawn) -15.3%, Cc1ccc(C)c(Nc2nc(-c3ccccc3)c3cc(Br)ccc3n2)c1 -4.48%, COc1ccc(CCNC(=O)CCCCn2c(=O)c3ccccc3n(CC(=O)Nc3ccc(C)cc3C)c2=O)cc1OC -5.97%, O=C(COc1ccccc1)NCCc1csc(-c2cccc(F)c2)n1 -4.58%, N#Cc1cccc(NC(=O)Cn2nc(Cc3ccncc3)c3ccccc3c2=O)c1 -25.6%, CCN1C(=O)C(Cc2nc3ccccc3c(=O)n2-c2ccc(OC)cc2)c2cc(C)ccc21 (stereo not drawn) -19.3%, Cc1cccc(C(=O)Nc2cccc(OCc3cc(=O)n4cccc(C)c4n3)c2)c1 4.72%, CCN(CC)CCNC(=O)C(=O)NCC(c1cccnc1)N1CCN(c2ccccc2)CC1 (stereo not drawn) -22.5%, Cc1cc(Sc2ccc(Cl)cc2)nc2ccccc12 29.7%, O=C(CSc1ccccc1)NCc1ccc2c(c1)CCN2C(=O)c1ccc(Cl)cc1 -20.3%, CC(C)(C)OC(=O)N1CCC(c2c(C(=O)NC3CCCCC3)cnn2-c2cccc(F)c2)CC1 -8.08%, C/C(=N\O)c1ccc(OCC(=O)N2CCCCC2)cc1 10.6%, Cc1ccc(C(=O)c2ccc(CC(=O)O)n2C)cc1 4.6%, COC(=O)c1c(NC(=O)Cc2coc3ccc(C)cc23)sc2c1CCC2 -16.1%, COc1ccc(-n2nc(C(=O)Nc3ccc(Cl)cn3)c3c4ccccc4n(C)c3c2=O)cc1Cl -13%, Cc1ccc(CCNC(=O)c2cc(Nc3ccc(C)c(C)c3)nc3ccccc23)cc1 -13%, COc1ccc(C2C(C(N)=O)=C(C)Nc3nc(CCCO)nn32)cc1 (stereo not drawn) -0.443%, O=C(c1ccccc1Cl)N(Cc1ccco1)Cc1ccco1 -4.11%, Cc1cc(F)ccc1-n1nnc(C(N)=O)c1C 4.55%, CC(=O)c1cccc(NC(=O)c2c(-c3ccccc3)c(-c3ccccc3)nn(C)c2=O)c1 -11.3%, CN(Cc1ccccc1)c1ccc(-c2nc(-c3ccco3)no2)cc1[N+](=O)[O-] 20.6%, CCCCN(CCCC)CCCOC(=O)c1ccc(N)cc1 4.05%, Cc1cc(C(F)(F)F)nn1-c1nc(-c2ccccc2)cc(C(F)(F)F)n1 -28.4%, Cc1cc(=O)n(CC(=O)Nc2ccc([N+](=O)[O-])cc2)c(-n2nc(C)cc2C)n1 -20.6%, Cc1ccccc1NC(=O)Cn1c(=O)n(CCc2ccccc2)c(=O)c2sc3ccccc3c21 -2.09%, Cc1[nH]c2ccccc2c1C(c1ccccc1)c1cccs1 (stereo not drawn) -25.3%, O=C(O)CN1C(=O)c2cccc3cccc(c23)C1=O -0.0495%, Cc1cccc(-n2c(SCc3nc(-c4ccccc4C)no3)nnc2-c2ccccc2)c1 -8.1%, CN1CCN(c2oc(/C=C/c3ccc(F)cc3)nc2C#N)CC1 -9.84%, FC(F)(F)C(Cl)Br (stereo not drawn) 7.22%, COc1cc(NC(=O)c2nn(-c3ccc(C)cc3)c(=O)c3c2c2ccccc2n3C)cc(OC)c1OC -16.1%, CCc1nn(CC(=O)NC(C)CC)c(=O)c2cc3c(OC)cccc3n12 (stereo not drawn) -2.68%, CC[N+](C)(CC)CCOC(=O)C1c2ccccc2Oc2ccccc21 6%, CCOc1ccc(-n2nc(CO)c(C(=O)NCc3cccnc3)n2)cc1 -24.2%, COc1ccc(-c2noc(-c3ccc(N4CCN(c5ccc(OC)cc5)CC4)c([N+](=O)[O-])c3)n2)cc1 0.569%, Cc1cccn2c(=O)c(C(=O)NCc3ccccc3Cl)c(O)nc12 -6.58%, COc1cccc(N2CCN(C(=O)c3cc4c(=O)n(Cc5ccccc5)ccc4nc3C)CC2)c1 -30.6%, CCC(=O)N1c2ccccc2CC1C(=O)NCc1cccc(C)c1 (stereo not drawn) -24.7%, CCN(CC)CCCNC(=O)Cn1nc(C)n2c(cc3sccc32)c1=O -4.26%, Cc1ccc(C(=O)c2oc3ccccc3c2NC(=O)Cc2coc3cc(C)ccc23)cc1 -14.6%, COc1ccc(CCNC(=O)Cn2c(=O)n(-c3ccc(C)c(C)c3)c(=O)c3c(C)c(C)sc32)cc1OC -6.87%, COc1ccc(Cn2nnc3c(=O)[nH]c(C4CCCN(C(=O)c5ccc(C)cc5)C4)nc32)cc1 (stereo not drawn) -24.3%, CCCCc1ccc(NC(=O)Cn2nnc3sc4c(c3c2=O)CCC(C)C4)cc1 (stereo not drawn) -9.41%, COc1ccc(NC(=O)c2ccc3oc(=O)c(S(=O)(=O)c4ccc(C)cc4)cc3c2)cc1OC -8.16%, Cc1nn(S(=O)(=O)c2ccccc2)c(C)c1S(=O)(=O)N1CCC(C)CC1 -19%, COc1ccc(OC)c(C(=O)c2c(N)c(-c3nc(-c4ccc(C)c(C)c4)cs3)c3ccccn23)c1 -4.04%, Clc1cccc(CSc2nncn3c2cc2sccc23)c1 1.66%, CCOC(=O)C1(C)C=C(Nc2ccc(Br)cc2)C(=O)N1c1ccccc1 (stereo not drawn) 1.41%, COc1ccc(CC(=O)NC2CC(=O)N(c3cccc(F)c3)C2)cc1 (stereo not drawn) 0.322%, Cc1ccc(-c2nnc(Nc3ccc(Br)cc3)c3ccccc23)cc1S(=O)(=O)N1CCN(C)CC1 -33.2%, Cc1ccc(OCC(=O)Nc2ccc(OCc3cc(=O)n4cccc(C)c4n3)cc2)cc1C -7.75%, COc1ccc(CCNC(=O)Cc2c(C)c3c(cc(C)c4c(C)coc43)oc2=O)cc1OC -7.23%, CCN(C(=O)C(=O)Nc1ccc2nc3n(c(=O)c2c1)CCCCC3)c1ccc(F)cc1 0%, COc1ccc(CCNC(=O)c2ccc3c(c2)CCN3S(C)(=O)=O)cc1 -12.5%, Cc1c(C(=O)N(Cc2ccc(N(C)C)cc2)C2CCS(=O)(=O)C2)oc2ccccc12 (stereo not drawn) 3.97%, Cc1ccc2sc(N(Cc3cccnc3)C(=O)CCOc3ccccc3)nc2c1C -29.5%, O=C(O)CCCCCCCC(=O)O 9.71%, COc1ccc(OC)c(C2NC(=O)NC(C)=C2C(=O)Nc2cc(C)cc(C)c2)c1 (stereo not drawn) -7.98%, O=C(c1ccc2c(c1)N(Cc1ccccc1)C(=O)c1ccccc1S2(=O)=O)N1CCN(c2ccccc2)CC1 -12.8%, Cc1nnc(NC(=O)CSc2nc3c([nH]c4ccccc43)c(=O)n2-c2ccccc2)s1 0.496%, CC(O)CN(CCN(CC(C)O)CC(C)O)CC(C)O (stereo not drawn) -1.33%, COc1ccc(C2CC(=O)c3cc(-c4nc(-c5cccc([N+](=O)[O-])c5)cs4)c(=O)n(-c4ccc(C)c(C)c4)c3C2)cc1 (stereo not drawn) -11%, CCC(Sc1nc2ccccc2c2nc(CCn3cncc3C)nn12)C(=O)Nc1cccc(OC)c1 (stereo not drawn) -16.6%, CCC1CCCCN1CCCNC(=O)CN1C(=O)c2cccnc2Oc2ccc(Cl)cc21 (stereo not drawn) 5.9%, COc1ccc(Cn2c(CNC(=O)c3ccc(N(C)C)cc3)nc3cccnc32)cc1 -9.34%, O=C(Cn1cc(SCc2ccc(C(F)(F)F)cc2)c2ccccc21)N1CCCCCC1 -24.2%, Cc1ccc2oc(=O)c3cc(C(=O)Nc4ccc(F)cc4F)sc3c2c1 -4.67%, COc1ccc(CCNC(=O)c2ccc(Cn3c(=O)c4ccccc4n(Cc4cc(C)ccc4C)c3=O)cc2)cc1OC -7.03%, Fc1ccc(Nc2nc3ccccc3c3nncn23)c(Cl)c1 0.323%, Cc1cc(C)c2nc(N3CCCC(C(=O)NCc4cccc(Br)c4)C3)sc2c1 (stereo not drawn) 19.5%, Cc1ccc(NC(=O)c2oc3ccc(S(=O)(=O)N4CCCCCC4)cc3c2C)cc1Cl -6.87%, CC(C)CSc1nnc(-c2ccccc2)c(-c2ccccc2)n1 -22.5%, COc1ccc(C)c2sc(N(Cc3cccnc3)C(C)=O)nc12 -31%, Cc1ccc(Cl)cc1NC(=O)CN1C(=O)c2cccc3cccc1c23 -7.58%, COc1ccc(-c2nc3ccccc3s2)cc1NC(=O)COc1ccccc1C 0.31%, COc1ccccc1OCCn1c(NC(=O)c2ccc(Cl)cc2)nc2ccccc21 -10.6%, CN(C)c1ccc(CNC(=O)CN2C(=O)c3cccnc3Oc3ccc(Cl)cc32)cc1 6.19%, Cc1nn(CC(=O)NCc2cccc(Br)c2)c(=O)c2c1sc1ccccc12 -1.48%, Cc1cc(C)c(S(=O)(=O)NCCc2cc3cc(C)c(C)cc3[nH]c2=O)c(C)c1 -9.57%, O=S(=O)(NCCc1nnc2ccc(SCc3ccc(C(F)(F)F)cc3)nn12)c1ccccc1 -21.1%, COc1cccc(C(c2sc3nc(-c4ccco4)nn3c2O)N2CCOCC2)c1 (stereo not drawn) 3.88%, Cc1ccc(Nc2nc3ccc(C)cc3nc2-n2nc(C)cc2C)c(C)c1 1.82%, CC(C)C(=O)Nc1nnc(S(=O)(=O)N2CCCCCC2)s1 -5.48%, COc1ccc(N(CC(=O)NCc2ccccc2Cl)S(=O)(=O)c2c(C)[nH]c(=O)[nH]c2=O)cc1 -21.8% [at 11.5 µM], O=C(C1COc2ccccc2O1)N1CCN(c2nc3c(F)cccc3s2)CC1 (stereo not drawn) 15.8%, NS(=O)(=O)c1cc(C2(O)NC(=O)c3ccccc32)ccc1Cl (stereo not drawn) 11.4%, COCCNC(=O)C1CCC(CNS(=O)(=O)c2ccc3c(c2)CC(C)N3C(C)=O)CC1 (stereo not drawn) -11.9%, COc1cc(C(CC(=O)Nc2ccc(Br)cn2)N2Cc3ccccc3C2=O)cc(OC)c1OC (stereo not drawn) -12.1%, Cc1c(C(=O)Nc2cccc(F)c2)oc2c1-c1nn(Cc3c(F)cccc3Cl)cc1CC2 -4.22%, Cc1ccc(Cn2c(=O)n(CC3CCC(C(=O)N4CCC(C)CC4)CC3)c(=O)c3sccc32)cc1 (stereo not drawn) -1.82%, Cc1ccc(CNC(=O)c2c(O)nc3ccccn3c2=O)cc1 -8.22%, Cc1c(Cl)cccc1NC(=O)NCc1c(-n2cccc2)sc2c1CCCC2 -6.85%, Cc1ccc(N(Cc2cccs2)C(=O)Nc2cccc(Cl)c2)cc1 -13.3%
